# The shares of active, inactive and inconclusive entries below differ from those in the screen. No potency is given beside an inconclusive call; the fits are too rough. Calls of active or inactive are those of the source. Calls follow the shape of the dose curve; as a rule, active = well fitted activation curve with a large enough effect; inconclusive = small, poorly fitted or top-dose-only effect; inactive = no such curve, though single readings can be large or run the other way.
# Biological target: Rap guanine nucleotide exchange factor 3 (Homo sapiens) (UniProt O95398)
# Experiment: Confirmatory qHTS for agonist of cAMP-regulated guanine nucleotide exchange factor 3 (EPAC1) (AID 1645881); also: nearly all actives have a fitted effect of over 75% in size;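 as to activation: EPAC1 catalysed release of BODIPY-GDP from Rap1B seen as fluorescence loss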
# Settings: EPAC1 Rap1B BODIPY-GDP exchange fluorescence; series mostly up to 154 µM
# Potency is read from the fitted curve at half-maximal effect; tags tell the direction and shape of the fitted curve.
# Sequence of UniProt O95398 (O95398 whole entry, looked up): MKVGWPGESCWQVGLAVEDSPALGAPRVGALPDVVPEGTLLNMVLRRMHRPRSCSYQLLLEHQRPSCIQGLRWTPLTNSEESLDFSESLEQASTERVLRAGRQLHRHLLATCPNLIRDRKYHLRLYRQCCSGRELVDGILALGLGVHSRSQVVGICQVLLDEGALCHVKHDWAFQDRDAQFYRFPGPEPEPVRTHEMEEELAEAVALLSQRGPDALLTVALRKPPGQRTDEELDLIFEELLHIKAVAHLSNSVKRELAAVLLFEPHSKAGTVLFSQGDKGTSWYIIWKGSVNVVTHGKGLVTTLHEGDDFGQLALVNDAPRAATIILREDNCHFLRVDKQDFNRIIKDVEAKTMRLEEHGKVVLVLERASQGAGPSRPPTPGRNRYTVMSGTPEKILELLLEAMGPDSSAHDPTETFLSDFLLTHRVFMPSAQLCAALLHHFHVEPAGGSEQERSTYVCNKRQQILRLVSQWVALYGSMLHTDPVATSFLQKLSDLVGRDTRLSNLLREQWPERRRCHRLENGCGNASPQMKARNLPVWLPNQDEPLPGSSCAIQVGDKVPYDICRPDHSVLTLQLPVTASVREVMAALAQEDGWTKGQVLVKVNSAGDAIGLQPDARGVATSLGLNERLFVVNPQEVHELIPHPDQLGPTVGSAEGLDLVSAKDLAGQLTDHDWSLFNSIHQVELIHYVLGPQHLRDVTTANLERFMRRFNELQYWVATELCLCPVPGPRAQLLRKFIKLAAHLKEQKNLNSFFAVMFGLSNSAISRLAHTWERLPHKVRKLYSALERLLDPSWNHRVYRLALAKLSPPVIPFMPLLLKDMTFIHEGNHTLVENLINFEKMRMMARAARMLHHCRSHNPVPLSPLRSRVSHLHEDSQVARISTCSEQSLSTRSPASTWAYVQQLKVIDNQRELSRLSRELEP
row,Compound,Potency
1,CCCOP(=O)(OCCC)C(Nc1cccc(C(F)(F)F)c1)c1ccc(C)cc1 (centres undefined),inactive
2,O=C1c2ccccc2-c2onc3c(Br)cc(NC4CCCCC4)c1c23,"inconclusive [activator, single point]"
3,Cc1cc(OC(C)C(=O)NCc2ccccn2)c2c(C)c(Cc3ccccc3)c(=O)oc2c1 (centres undefined),inactive
4,CCCc1nc2ccc(C(=O)OC)cn2c1Cc1ccccc1,inactive
5,O=C(O)c1ccccc1-c1ccc(/C=C/c2cc(C(F)(F)F)[nH]c(=O)n2)o1,active: 89.1 µM
6,Cc1ccc(F)c(NC(=O)/C(C#N)=C(\O)c2ccc(C(C)(C)C)cc2)c1,inactive
7,CCN(CC)c1ccc(/C=C(\C#N)C(=O)c2ccc(Br)cc2)cc1,"inconclusive [activator, partial curve, poor fit]"
8,CN1C(=O)c2cccc3c(N)ccc(c23)C1=O,"inconclusive [activator, partial curve, poor fit]"
9,CCOc1cnc(-c2c(-c3ccccc3Cl)noc2C)o1,inactive
10,Cc1nc(C)c(-c2csc(Nc3ccc(C(=O)O)c(O)c3)n2)s1,"inconclusive [activator, partial curve, poor fit]"
11,O=C(NC1CCCC1)c1cccc2c1C(=O)c1ccc(N3CCCCC3)cc1S2(=O)=O,"inconclusive [activator, partial curve, poor fit]"
12,Cc1cc(/C=C2\SC(=S)N(Cc3ccco3)C2=O)c(C)n1-c1cccnc1,"inconclusive [activator, partial curve, poor fit]"
13,Cc1cc2nc3c(=O)n(C4CCCCC4)c(=O)[nH]c3nc2cc1N,active: 56.2 µM
14,CCCCCCn1c(=O)[nH]c2nc3cc(N)c(C)cc3nc2c1=O,active: 112 µM
15,CC(=O)Nc1ccc(N2C(=O)c3cccc4c(O)ccc(c34)C2=O)cc1,active: 79.4 µM
16,Cc1c(CCC(=O)O)c(=O)oc2c(C)c3occ(-c4ccc(Br)cc4)c3cc12,"inconclusive [activator, partial curve]"
17,C=CCN(C(=O)Cn1ncc2c1-c1cc(C)ccc1OC2)c1ccccc1,inactive

row,Compound,Potency
1,COC1/C=C/OC2(C)Oc3c(C)c(O)c4c(O)c(c(/C=N/N5CCN(C)CC5)c(O)c4c3C2=O)NC(=O)/C(C)=C/C=C/C(C)C(O)C(C)C(O)C(C)C(OC(C)=O)C1C (centres undefined),inactive
2,O=S(=O)(O)c1cccc(N=Nc2c(O)ccc3ccccc23)c1,inactive
3,CCOc1ccc(NC(=NCc2ccc3c(c2)OCO3)SC2CC(=O)N(c3ccc(C(=O)O)cc3)C2=O)cc1 (centres undefined),inactive
4,CCOc1ccc(S(=O)(=O)Nc2cc(NS(=O)(=O)c3ccc(OCC)cc3)cc(C(=O)O)c2)cc1,inactive
5,Cc1ccc(C2=NOC(=O)/C2=C\c2ccc(C)o2)cc1,inactive
6,CC1(C(=O)NS(=O)(=O)c2ccc(Cl)s2)CCN1C(=O)C1(c2ccc(Cl)cc2)CCC1 (centres undefined),inactive
7,Cc1ccc(N=Cc2c(O)n(-c3nccs3)c(=O)c3ccccc23)c(C)c1,"inconclusive [activator, partial curve, poor fit]"
8,CN1/C(=C\C=C2/SC(=S)NC2=O)C(C)(C)c2ccccc21,active: 79.4 µM
9,COc1ccc2oc(C)c(C(=O)c3ccccc3)c2c1,"inconclusive [activator, single point]"
10,c1csc(CNc2ccnc(-c3ccc4c(c3)OCO4)n2)c1,"inconclusive [activator, partial curve, poor fit]"
11,COc1cc(-c2noc(C)c2-c2ccc3[nH]ccc3c2)cc(OC)c1OC,inactive
12,Cc1cc(C)c2nc(C(F)(F)F)nc(N3CC(C)OC(C)C3)c2c1 (centres undefined),inactive
13,CNc1ccc(/C=C(\CCC(=O)O)c2nc3ccccc3s2)cc1[N+](=O)[O-],"inconclusive [activator, partial curve, poor fit]"
14,O/C=c1\ccc2cccc3nc(C(F)(F)F)nc1c23,active: 100 µM
15,COc1cccc(/C=N/NC(=O)c2[nH]nc3c2CCc2ccccc2-3)c1O,"inconclusive [activator, partial curve]"
16,CCOc1cc(/C=N/O)cc(Br)c1OCc1ccc(Cl)cc1,inactive
17,CCOC(=O)N1CCN(C(=O)c2cc(S(=O)(=O)N3CCc4ccccc43)ccc2OC)CC1,inactive

# From PubChem BioAssay (NCATS)
